Data taken from article PMC12040169 (PLOS Biology, 2025).
The list shows a part of the results.

system: T1, C. trachomatis L2/434/Bu expressing GFP (CTL2-GFP); set-up: species or system HeLa; C. trachomatis total inclusion area by high-content imaging, normalised to DMSO; conditions: total inclusion area; 28.5 h, 10 µM; inhibitor
T1 construct: L2/434/Bu GFP intracellular growth in HeLa cells
Outline: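 Host cell viability was gauged from Hoechst-stained nuclei counts, while chlamydial growth was taken from total inclusion area and inclusion number per well. Cells were fixed and imaged by high-content microscopy once bulk GFP and resorufin fluorescence had been measured.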

SMILES	% of control remaining
C[C@]12CN(Cc3cccc(C#Cc4ccccc4)c3)C[C@H]1C(=O)Nc1ccccc1C(=O)N2 [CBK286403]	109.133
CCCCn1c(CSc2ncccc2C(=O)O)nc2cc(S(=O)(=O)N3CCOCC3)ccc21 [CBK297558]	69.2865
CN1CCC(N2CCN(C(=O)NCCCN3CCCC3=O)CC2)CC1 [CBK156105]	90.584
O=S(=O)(Nc1nccnc1-c1ccc2c(c1)OCO2)c1cccc(Cl)c1 [CBK050951]	92.6103
COc1ccc2ccccc2c1CNCCCN1CCOCC1 [CBK278209C]	92.4837
Cc1csc2c(C3CCN(C(=O)c4ccn(C)n4)CC3)nc(C)n12 [CBK285248]	77.4292
O=C(c1cccnc1)N1CCc2ccccc21 [CBK200279]	86.9162
CCOC(=O)c1c(NC(=S)N2CCN(S(C)(=O)=O)CC2)sc(C)c1-c1ccccc1 [CBK267072]	86.6174
C=CCc1cc(C)cc(C)c1OCCN1CCN(C)CC1 [CBK269672C]	77.3317
O=C(CSc1nnc(-c2cccnc2)n1-c1ccc(Br)cc1)Nc1ccc2c(c1)OCCO2 [CBK266133]	97.3414
Nc1nnc(SCc2nc(=O)c3ccccc3[nH]2)s1 [CBK270059]	82.2654
CCS(=O)(=O)c1ccc(C(=O)Nc2nc3c(F)cc(F)cc3s2)cc1 [CBK287727]	87.6593
CN(C)CCN(C)C(=O)c1cc2cc(OC(F)(F)F)ccc2[nH]1 [CBK107316]	67.3516
CCN1CCN(C(=O)Cc2ccc(N(C)C)cc2)CC1 [CBK200253]	100.75
Cc1[nH]c(=O)c(C#N)c(C)c1CCC(=O)NCc1cn2ccccc2n1 [CBK306325]	27.8339
CC(=O)Nc1ccccc1NC(=O)CN(C)S(=O)(=O)c1ccc(Cl)cc1 [CBK267373]	103.535
CCNC(=O)Nc1cc2cccnc2nc1-c1ccc2c(c1)OCCCO2 [CBK070695]	89.1893
CC(C)(C)OC(=O)N1CCC(CNCc2c[nH]c(-c3ccccc3)n2)CC1 [CBK056718]	120.714
O=C(Nc1ccnn1Cc1cccs1)c1cc(=O)[nH]c2ccccc12 [CBK295606]	86.8046
CCOC(=O)c1cnc2nc3ccccc3n2c1C [CBK270185]	93.1813
COCc1cccc(-c2nccnc2OCc2ccccn2)c1 [CBK106953]	91.0375
COC(=O)c1ccccc1NC(=O)N1CCN(S(=O)(=O)c2ccc(Cl)cc2)CC1 [CBK266860]	123.939
CN1CCN(CC(=O)N2N=C(c3c(-c4ccccc4)c4cc(Cl)ccc4[nH]c3=O)CC2c2ccccc2)CC1 (stereo not shown) [CBK267545]	102.641
CC(C)c1ccc(NC(=O)C2=NNC(=O)CC2)cc1 [CBK057421]	43.4862
CN1CCCN(Cc2ccc([N+](=O)[O-])s2)CC1 [CBK261558]	93.8906
O=C(O)CCNS(=O)(=O)c1ccc(Cl)c(Cl)c1 [CBK268815]	116.342
CN(C)c1ccc(CCNC(=O)c2cn3ccccc3n2)cc1 [CBK281916]	92.9964

SMILES	% of control remaining
CC(c1ccccc1)N(C)C(=O)Cn1c(-c2cccs2)n[nH]c1=S (stereo not shown) [CBK296718]	100.291
FC(F)(F)c1ccc(CN2CCCN(c3nccc(OCc4ccc(Cl)c(Cl)c4)n3)CC2)cc1 [CBK083949]	8.282
Cc1cccc(OCC(=O)Nc2ccc(-c3nc4ncccc4o3)cc2C)c1 [CBK269287]	109.808
O=C(CCCN1C(=O)c2cccc3cccc(c23)C1=O)N1CCN(C/C=C/c2ccccc2)CC1 [CBK263300C]	91.8585
C(=C\CSC1=NCCN1)/CSC1=NCCN1 [CBK264266]	131.75
O=c1[nH]c2ccccc2n1CCOc1ccccc1 [CBK288008]	114.214
CC[C@@H]1CCCCN1C(=O)c1sc2nc(C(C)=O)ccc2c1Cl [CBK091036]	84.3525
C[C@H](Nc1nc(-c2cccc(C(=O)NCCN(C)C)c2)cnc1N)c1ccccc1 [CBK063714]	114.947
Cc1ccc(NC(=O)CN(C)C)c(C)n1 [CBK200388]	100.059
Cc1c(C=Cc2cc(C(=O)O)c3ccccc3n2)cc(C#N)n1C [CBK295604]	87.8617
N#Cc1c(NC(=O)CSc2nc3ccccc3s2)oc(-c2ccccc2)c1-c1ccccc1 [CBK269019]	55.4905
COCC1CCN(c2ncc(C#N)cc2Cl)CC1 [CBK306410]	28.1008
COc1ncc(-c2nccnc2N[C@@H]2CCN(Cc3ccccc3)C2)c(OC)n1 [CBK036926]	120.535
COc1ccc(C(=O)C2=C(O)C(=O)N(CCCO)C2c2ccc(Br)cc2)cc1 (stereo not shown) [CBK263769]	111.365
OCc1ccccc1-c1nccnc1NCCc1cccnc1 [CBK037444]	76.094
O=C(NCCc1c[nH]c2cccc(C3(O)CCCC3)c12)C1CC1 [CBK285319]	97.0547
CCN1CCCN(c2ccc(-n3ccc(C)n3)nn2)CC1 [CBK306297]	51.7351
Cn1nccc1C(=O)C1CCN(C(=O)c2cccs2)CC1 [CBK284424]	91.1755
CC(C)C(=O)Nc1cc2ccccc2c(-c2cccnc2)n1 [CBK073786]	97.2648
Cc1ccc2nc(C)c(CCC(=O)O)c(O)c2c1 [CBK262946]	80.0898
O=C(c1ccsc1NS(=O)(=O)c1cc(Cl)sc1Cl)N1CCOCC1 [CBK042288]	95.0771
O=C(COc1ccccc1[N+](=O)[O-])Nc1ccc(Cl)c(-c2nc3ncccc3o2)c1 [CBK268811]	109.4
Cc1cnc(NC(=O)C2CC(=O)N(Cc3cccs3)C2)s1 (stereo not shown) [CBK175531]	33.399
CCc1cc2cc3c(cc2nc1SCC(=O)Nc1cc(OC)ccc1OC)OCO3 [CBK108546]	86.117
CCc1nc2c(OCCOC)cccn2c1N(C)C(=O)c1ccccc1F [CBK147722]	104.16
CCOC(=O)CN1C(=O)S/C(=C/c2ccc(OCc3ccc(Br)cc3)cc2)C1=O [CBK264686]	108.926
N#CCCCN1C(=O)C(O)(CC(=O)c2ccccn2)c2ccccc21 (stereo not shown) [CBK307373]	62.1319

SMILES	% of control remaining
O=C(CCS(=O)(=O)Cc1ccccc1)Nc1cc(C(F)(F)F)ccc1Cl [CBK268399]	97.2096
O=C(NC(Cc1cccs1)c1nccs1)C1CSCN1 (stereo not shown) [CBK284805]	130.219
COc1ccccc1CNC(=O)N[C@@H](CC(C)C)C(=O)O [CBK286722]	73.7219
COc1cccc(-c2cnc(N(C)S(C)(=O)=O)c(C(=O)NC3CCCCC3)c2)c1 [CBK106446]	101.664
Cc1cccc(C(=O)N2CCCCC2C)c1 (stereo not shown) [CBK074052]	71.4233
NS(=O)(=O)c1ccc(NC(=S)N2CCN(CCc3ccccc3)CC2)cc1 [CBK268133]	83.2275
CN(C)CCCC(=O)N1CCN(c2ncccn2)CC1 [CBK144523]	89.6365
COc1cccc(CCNC2CC(=O)N(c3ccc(NC(C)=O)cc3)C2=O)c1 (stereo not shown) [CBK265233]	82.6144
COc1cccc(N2C(=O)N[C@@H]3CCN(S(=O)(=O)c4ccccc4)[C@@H]3C2=O)c1 [CBK289283]	93.1076
N#CCCCN1CCC(Oc2cncc(OCCN3CCOCC3)n2)C1 (stereo not shown) [CBK084495]	81.3542
CCCC(=O)N1CCC(c2nc3ccccn3c2NC(C)(C)C)CC1 [CBK284744]	114.602
Cc1c(C(=O)O)sc(S(=O)(=O)N2CCN(C(=O)c3ccc(F)cc3)CC2)c1C(=O)O [CBK297118]	50.1901
CN(C)CC(=O)N1CN(C(=O)c2cccc(Br)c2)C(C)(C)C1 [CBK092206C]	82.5767
COc1ccc(-c2csc(CCNC(=O)Cc3c[nH]c(=O)[nH]c3=O)n2)cc1 [CBK285670]	84.4829
COc1ccc(CN(CCN(C)C)C(=O)NCc2ccc(-c3ccccc3)cc2)cc1OC [CBK159293]	74.0407
CCn1cc(-c2nc3cc(S(=O)(=O)NC(C)C)ccc3n2C(C)C)cn1 [CBK307311]	81.3818
Cc1ccc(C2=CCN(CC(=O)N3CCCCC3C)CC2)o1 (stereo not shown) [CBK283556]	108.669
CN1C[C@H](CNC(=O)Nc2ccc(F)c(F)c2)[C@@H](c2ccc(Cl)c(Cl)c2)C1 [CBK076770]	56.6132
CC(=O)N[C@H](CC(N)=O)C(=O)N1CCC2(C/C=C/C[C@@H]3COCC[C@@H]3NC(=O)[C@@H](CC(C)C)NC2=O)CC1 [CBK292207]	101.406
CN1C(=O)CC2(C1=O)C(=O)N(CC(=O)O)c1ccc(Cl)cc12 (stereo not shown) [CBK076107]	115.209
Cc1ccc(S(=O)(=O)NCc2ccccc2)c(C)c1NS(C)(=O)=O [CBK268555]	125.585
NC1=C(N)OC(Oc2ccccc2C(F)(F)F)=NN1 [CBK018424]	54.4235
COCc1nc2n(n1)CC(NC1CCCc3sccc31)CC2 (stereo not shown) [CBK305116]	78.644
Cc1cc(C)c(C(=O)NC2CCN(c3ncccc3C#N)CC2)c(=O)[nH]1 [CBK306709]	94.9978
Cc1cn(CC(=O)NCC2(c3cccc(F)c3)CCCC2)nn1 [CBK281436]	105.248
